The antibiotic and cytotoxicity screens of Wong et al. (2023)
Some of the results follow.

system: S. aureus RN4220; assay: growth inhibition call (relative growth <= 0.2); conditions: 50 µM

Growth inhibition call, inactive:
C[C@@H]1CCCCO[C@@H](CN(C)Cc2ccccc2)[C@@H](C)CN([C@@H](C)CO)C(=O)c2cc(NC(=O)Nc3cccc4ccccc34)ccc2O1
C[C@@H]1CCCCO[C@H](CN(C)S(C)(=O)=O)[C@@H](C)CN([C@H](C)CO)C(=O)c2cc(NS(=O)(=O)c3ccc(F)cc3)ccc2O1
C[C@@H]1CN([C@@H](C)CO)C(=O)Cc2cc(NC(=O)Nc3ccccc3)ccc2O[C@H]1CN(C)S(C)(=O)=O
Cc1ccc(S(=O)(=O)Nc2ccc3c(c2)C(=O)N([C@H](C)CO)C[C@H](C)[C@H](CN(C)C(=O)Cc2ccccc2)OCCCC[C@@H](C)O3)cc1
NCc1ccc(-n2cccn2)cc1
CCCC#Cc1ccc2c(c1)O[C@@H](CN(C)Cc1ccc3c(c1)OCO3)[C@@H](C)CN([C@@H](C)CO)S2(=O)=O
Cc1ccc(S(=O)(=O)N(C)C[C@@H]2OCCCC[C@@H](C)Oc3ccc(NC(=O)Nc4ccc(F)cc4)cc3C(=O)N([C@H](C)CO)C[C@H]2C)cc1
C[C@@H]1CN([C@@H](C)CO)C(=O)c2cc(NC(=O)c3ccccc3)ccc2O[C@@H](C)CCCCO[C@H]1CN(C)Cc1ccc(C(=O)O)cc1
C[C@H]1CN([C@@H](C)CO)C(=O)c2cccc(NC(=O)c3ccc(-c4nccs4)cc3)c2O[C@H]1CN(C)Cc1ccc(C(F)(F)F)cc1
COCC#Cc1ccc2c(c1)O[C@@H](CN(C)S(=O)(=O)c1ccc(C)cc1)[C@H](C)CN([C@H](C)CO)S2(=O)=O
C=C[C@H]1CCC=C2C(=O)CCC[C@@H]21
Cc1ccc(S(=O)(=O)Nc2ccc3c(c2)C(=O)N([C@H](C)CO)C[C@H](C)[C@@H](CN(C)C(=O)Nc2c(C)noc2C)OCCCC[C@H](C)O3)cc1
CC(C)c1nc(N(C)S(C)(=O)=O)nc(-c2ccc(F)cc2)c1C=CC(O)CC(O)CC(=O)[O-].[Ca+2] (stereo unspecified)
C[C@H](CO)N1C[C@H](C)[C@@H](CN(C)Cc2ccccc2)OCCCC[C@H](C)Oc2ccc(NC(=O)c3ccccc3)cc2C1=O
COc1ccc(NC(=O)N[C@@H]2CC[C@H](CCNC(=O)CN3CCOCC3)O[C@H]2CO)cc1
C[C@@H]1CN([C@@H](C)CO)C(=O)c2cc(NS(C)(=O)=O)ccc2O[C@@H]1CN(C)S(=O)(=O)c1cn(C)cn1
Cc1noc(C)c1NC(=O)N(C)C[C@@H]1OCCCC[C@@H](C)Oc2ccc(NS(=O)(=O)c3ccc(Cl)cc3)cc2C(=O)N([C@H](C)CO)C[C@@H]1C
COc1ccccc1S(=O)(=O)N1C[C@H](O)COC[C@H]2O[C@H](CC(=O)O)CC[C@@H]21
CCNC(=O)[C@@H]1[C@@H](CO)[C@@H]2Cn3c(ccc(-c4ccc(OC)cc4)c3=O)[C@H]1N2S(C)(=O)=O
O=C(CCCCCC(=O)N/N=C/[C@H](O)[C@H](O)[C@@H](O)[C@@H](O)CO)NO
O=C1C[C@]2(c3ccc([N+](=O)[O-])cc3)C(=O)N(Cc3ccccc3)c3cc(CO)ccc3[C@H]2N1C1CCCCC1
